{"source": "PubChem BioAssay (NCATS)", "key": {"[1]": {"test": "Confirmatory qHTS for small molecule stabilizers of the endoplasmic reticulum resident proteome: Secreted ER Calcium Modulated Protein (SERCaMP) assay (AID 1508628); further: nearly all actives have a fitted effect of over 40% in size; further: potency means the concentration at half of the fitted maximal effect", "method_in_brief": "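SH-SY5Y cells stably expressing GLuc-SERCaMP, treated 16 h with compound (primary 1.53, 7.67, 38.3 uM; confirmation 11 concentrations, up to 76.6 uM), then 100 nM thapsigargin for 4 h. Secreted Gaussia luciferase in medium read by coelenterazine luminescence.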"}, "[2]": {"test": "Cell Viability qHTS for small molecule stabilizers of the endoplasmic reticulum resident proteome (AID 1508629);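 further: compound exposure about 46 h in total before the viability read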; further: potency means the concentration at half of the fitted maximal effect;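 on max response: human SH-SY5Y neuroblastoma cells carrying the GLuc-SERCaMP reporter; on the % scale 0 is the no-effect control and ±100 the full control effect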", "details": "cell viability counter-screen, 100 nM thapsigargin for final 4 h"}, "[3]": {"test": "Primary qHTS for small molecule stabilizers of the endoplasmic reticulum resident proteome: Secreted ER Calcium Modulated Protein (SERCaMP) assay (AID 1508630); further: potency means the concentration at half of the fitted maximal effect", "details": "SH-SY5Y GLuc-SERCaMP (Gaussia luciferase released on ER calcium loss) secretion, thapsigargin, luminescence; activity change, negative = inhibition: at 38.4 µM (top of the series)", "method_in_brief": "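GLuc-SERCaMP-expressing SH-SY5Y cells, pretreated 16 h with compound, are challenged with thapsigargin to empty ER calcium stores; after 4 h, coelenterazine is added directly to the medium and luminescence is imaged.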"}, "[4]": {"test": "A High-Content qHTS Against Drug Library for the Identification of Small Molecules that Inhibit DYT1 Early Onset Primary Dystonia-Associated Cell Pathology (AID 1645839; calls by dose curve; further: potency means the concentration at half of the fitted maximal effect)", "method_in_brief": "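In this high-content image screen, delE TorsinA mislocalization in inducible Flp-In 293 cells is scored as %pathology, with cell count serving as the counterscreen. Compound exposure lasts 48 h under tetracycline induction in reduced-serum medium.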"}, "[5]": {"test": "Primary qHTS for inhibitors of nuclear receptor binding SET domain protein 2 (NSD2) in an isogenic RCH-ACV NSD2 p.E1099K mutant (9B) (AID 1645876); further: nearly all actives have a fitted effect of over 70% in size; further: potency means the concentration at half of the fitted maximal effect"}, "[6]": {"molecular_target": "Cytochrome P450 2D6 (Homo sapiens) (UniProt P10635)", "sequence (P10635 whole entry, looked up)": "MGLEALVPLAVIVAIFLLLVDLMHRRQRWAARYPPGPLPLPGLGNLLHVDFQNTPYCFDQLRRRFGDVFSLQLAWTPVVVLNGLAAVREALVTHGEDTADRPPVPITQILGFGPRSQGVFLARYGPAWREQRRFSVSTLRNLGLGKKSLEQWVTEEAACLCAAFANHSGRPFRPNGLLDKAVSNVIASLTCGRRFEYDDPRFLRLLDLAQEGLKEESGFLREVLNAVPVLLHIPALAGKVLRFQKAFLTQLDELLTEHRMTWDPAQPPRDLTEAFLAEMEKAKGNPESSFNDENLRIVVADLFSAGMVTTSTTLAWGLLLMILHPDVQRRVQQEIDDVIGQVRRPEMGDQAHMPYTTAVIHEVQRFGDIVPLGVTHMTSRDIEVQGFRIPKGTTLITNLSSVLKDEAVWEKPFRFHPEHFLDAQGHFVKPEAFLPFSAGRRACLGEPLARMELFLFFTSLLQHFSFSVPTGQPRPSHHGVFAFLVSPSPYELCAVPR", "test": "Cytochrome P450 family 2 subfamily D member 6 (CYP2D6) small molecule antagonists: luciferase biochemical (cell-free) qHTS assay (AID 1645840; active means well fitted curve in the direction sought with a large enough effect in the repeat runs; inconclusive means weak or mixed curves; inactive means no such curve, though single readings can be large; an effect the other way counts as inactive or inconclusive; further: potency means the concentration at half of the fitted maximal effect; nearly all actives have a fitted effect of over 55% in size)", "method_in_brief": "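P450-Glo luminescent screen: recombinant CYP2D6 enzyme–proluciferin substrate mix preincubated with compound 10 min at room temperature, then NADPH regeneration added for 1 h at room temperature. Detection reagent added for 20 min; luciferin light read as relative luminescence units.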"}, "[7]": {"test": "Primary qHTS for inhibitors of nuclear receptor binding SET domain protein 2 (NSD2) in an RCH-ACV wild type WT cells (2C) (AID 1645877); further: nearly all actives have a fitted effect of over 70% in size; further: potency means the concentration at half of the fitted maximal effect; on activity change, negative = cell killing: on the % scale 0 is the no-effect control and ±100 the full control effect", "details": "activity change, negative = cell killing: at 44.9 µM (top of the series) unless noted"}, "[8]": {"molecular_target": "Calcium and integrin-binding protein 1 (Homo sapiens) (UniProt Q99828)", "sequence (Q99828 whole entry, looked up)": "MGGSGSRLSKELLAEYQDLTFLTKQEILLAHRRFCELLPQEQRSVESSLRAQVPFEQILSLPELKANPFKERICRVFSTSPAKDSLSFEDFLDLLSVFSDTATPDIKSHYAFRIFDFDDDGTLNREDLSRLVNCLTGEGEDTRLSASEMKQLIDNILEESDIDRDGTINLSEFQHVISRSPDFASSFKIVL", "test": "Primary qHTS for Identification of Calcium Integrin Binding Protein 1 (CIB1) Competitor (AID 1508620); further: potency means the concentration at half of the fitted maximal effect", "method_in_brief": "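CIB1-GST (1 uM final) and compound incubated 15 min at room temperature before adding FITC-alphaIIb peptide tracer (100 nM final). Competition for binding read by fluorescence polarization (ex 480, em 540) after another 15 min at room temperature.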"}, "[9]": {"molecular_target": "Rap guanine nucleotide exchange factor 3 (Homo sapiens) (UniProt O95398)", "sequence (O95398 whole entry, looked up)": "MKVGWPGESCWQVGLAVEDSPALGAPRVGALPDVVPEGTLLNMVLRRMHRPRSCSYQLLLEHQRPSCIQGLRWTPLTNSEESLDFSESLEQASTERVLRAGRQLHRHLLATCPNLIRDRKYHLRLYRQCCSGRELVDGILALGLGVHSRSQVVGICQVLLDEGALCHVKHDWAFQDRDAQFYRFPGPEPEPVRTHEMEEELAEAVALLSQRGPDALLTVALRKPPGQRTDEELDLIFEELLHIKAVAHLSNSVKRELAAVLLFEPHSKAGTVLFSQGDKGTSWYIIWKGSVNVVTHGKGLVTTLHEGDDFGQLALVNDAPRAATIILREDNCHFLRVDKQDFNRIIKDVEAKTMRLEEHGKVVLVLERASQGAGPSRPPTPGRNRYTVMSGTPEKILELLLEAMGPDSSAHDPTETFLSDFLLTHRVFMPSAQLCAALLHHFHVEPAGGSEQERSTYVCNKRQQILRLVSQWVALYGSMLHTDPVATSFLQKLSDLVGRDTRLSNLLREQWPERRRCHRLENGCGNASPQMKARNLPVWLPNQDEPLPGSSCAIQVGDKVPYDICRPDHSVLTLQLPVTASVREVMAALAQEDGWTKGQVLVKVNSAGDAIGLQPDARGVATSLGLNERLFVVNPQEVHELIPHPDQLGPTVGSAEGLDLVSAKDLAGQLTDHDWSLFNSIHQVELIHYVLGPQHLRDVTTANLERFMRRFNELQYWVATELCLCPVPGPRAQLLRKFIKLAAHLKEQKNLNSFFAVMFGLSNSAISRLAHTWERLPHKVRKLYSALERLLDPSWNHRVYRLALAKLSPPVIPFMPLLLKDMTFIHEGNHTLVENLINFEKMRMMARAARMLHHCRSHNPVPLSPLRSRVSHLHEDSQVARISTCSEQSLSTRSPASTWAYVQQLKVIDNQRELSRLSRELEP", "test": "Confirmatory qHTS for antagonist of cAMP-regulated guanine nucleotide exchange factor 3 (EPAC1) (AID 1645880);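 further: plate controls were DMSO only for no effect and full effect of the ATA control for full effect; nearly all actives have a fitted effect of over 55% in size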", "method_in_brief": "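Nucleotide exchange uses 100 nM EPAC1, 250 nM RAP1B-BODIPY-GDP and 50 uM GDP, with compounds in a concentration-titration series. After 5 min at room temperature, fluorescence (480 nm ex/540 nm em) is read every 5 min for 30 min. Data are normalized to control ATA and DMSO.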"}, "[10]": {"molecular_target": "Rap guanine nucleotide exchange factor 3 (Homo sapiens) (UniProt O95398)", "test": "Confirmatory qHTS for agonist of cAMP-regulated guanine nucleotide exchange factor 3 (EPAC1) (AID 1645881); further: potency means the concentration at half of the fitted maximal effect; nearly all actives have a fitted effect of over 75% in size"}, "[11]": {"molecular_target": "Cytochrome P450 3A4 (Homo sapiens) (UniProt P08684)", "sequence (P08684 whole entry, looked up)": "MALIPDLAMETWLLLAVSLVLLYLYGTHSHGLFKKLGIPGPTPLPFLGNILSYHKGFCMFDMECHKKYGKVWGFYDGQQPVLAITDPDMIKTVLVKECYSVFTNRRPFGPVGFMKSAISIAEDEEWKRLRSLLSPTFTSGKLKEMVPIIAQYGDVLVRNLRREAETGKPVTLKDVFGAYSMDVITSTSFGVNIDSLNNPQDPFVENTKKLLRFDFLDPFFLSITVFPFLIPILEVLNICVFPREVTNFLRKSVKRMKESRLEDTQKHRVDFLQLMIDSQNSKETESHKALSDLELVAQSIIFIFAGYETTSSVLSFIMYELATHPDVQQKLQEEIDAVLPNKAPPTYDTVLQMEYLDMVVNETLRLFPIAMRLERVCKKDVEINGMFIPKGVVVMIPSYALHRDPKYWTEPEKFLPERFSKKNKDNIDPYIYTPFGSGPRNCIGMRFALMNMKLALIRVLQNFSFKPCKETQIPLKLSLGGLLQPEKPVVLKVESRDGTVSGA", "test": "Cytochrome P450 family 3 subfamily A member 4 (CYP3A4) small molecule antagonists: luciferase qHTS assay (AID 1645841; active means well fitted curve in the direction sought with a large enough effect in the repeat runs; inconclusive means weak or mixed curves; inactive means no such curve, though single readings can be large; an effect the other way counts as inactive or inconclusive; further: potency means the concentration at half of the fitted maximal effect; nearly all actives have a fitted effect of over 45% in size)", "method_in_brief": "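Luminescent CYP3A4 activity readout: compounds plus enzyme-substrate mix 10 min at room temperature, reaction started with NADPH regenerating system for 1 h, stopped with detection reagent, read after 20 min. Ketoconazole served as control.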"}}, "note": "Values joined by “and” are separate entries in the source; they are usually repeats but may differ in a detail not shown here. Equal values may be shown once. This list was built around the results that the source calls inconclusive (neither active nor inactive); the mix of calls is not that of the screen. For some assays here: Potencies beside an inconclusive call are fits to weak or partial responses and may not hold up. Active and inactive are the calls of the source. Unless noted, the call rests on the fitted dose curve; in most records, active means well fitted curve in the direction sought with a large enough effect; inconclusive means small, poorly fitted or top-dose-only effect, or another doubt; inactive means no such curve, though single readings can be large; an effect the other way counts as inactive or inconclusive. Tags describe the fitted curve by direction and shape."}
{"smiles": "CCC(=O)c1ccc2c(c1)N(CCCN(C)C)c1ccccc1S2", "values": [{"measurement": "Potency", "setting": "[1]", "result": "inconclusive: 14.1 µM [inhibitor, partial curve] and inactive"}, {"measurement": "Potency", "setting": "[2]", "result": "inconclusive: 14.1 µM [cytotoxic, partial curve] and inconclusive: 25.1 µM [cytotoxic, partial curve]"}, {"measurement": "Potency", "setting": "[3]", "result": "inconclusive: 7.08 µM [inhibitor, partial curve, poor fit] and inconclusive: 22.4 µM [inhibitor, partial curve, poor fit]"}, {"measurement": "Potency", "setting": "[4]", "result": "inconclusive: 10 µM [inhibitor, partial curve]"}, {"measurement": "Potency", "setting": "[5]", "result": "inconclusive: 23.7 µM [inhibitor, single point]"}]}
{"smiles": "CN1CCCC(n2nc(Cc3ccc(Cl)cc3)c3ccccc3c2=O)CC1", "note": "(centres undefined)", "values": [{"measurement": "Potency", "setting": "[1]", "result": "inconclusive: 7.94 µM [inhibitor, full curve]"}, {"measurement": "Potency", "setting": "[2]", "result": "inconclusive: 14.1 µM [cytotoxic, partial curve] and inconclusive: 25.1 µM [cytotoxic, partial curve]"}, {"measurement": "Potency", "setting": "[3]", "result": "inconclusive: 5.62 µM [inhibitor, partial curve, poor fit]"}, {"measurement": "Potency", "setting": "[4]", "result": "inconclusive: 10 µM [inhibitor, partial curve, poor fit]"}, {"measurement": "Potency", "setting": "[6]", "result": "active: 0.617 µM"}, {"measurement": "Potency", "setting": "[5]", "result": "inconclusive: 29.9 µM [inhibitor, single point]"}, {"measurement": "Potency", "setting": "[7]", "result": "inconclusive: 33.5 µM [inhibitor, single point]"}]}
{"smiles": "CN1CCN(C(c2ccccc2)c2ccccc2)CC1", "values": [{"measurement": "Potency", "setting": "[1]", "result": "inconclusive: 20 µM [inhibitor, partial curve, poor fit]"}, {"measurement": "Potency", "setting": "[2]", "result": "inconclusive: 0.224 µM [rising, full curve, poor fit]"}, {"measurement": "Potency", "setting": "[3]", "result": "inconclusive: 6.31 µM [inhibitor, partial curve, poor fit]"}]}
{"smiles": "CC12CC3CC(C)(C1)CC(N)(C3)C2", "values": [{"measurement": "Potency", "setting": "[1]", "result": "active: 11.2 µM and active: 39.8 µM"}, {"measurement": "Potency", "setting": "[2]", "result": "inconclusive: 0.501 µM [rising, full curve]"}, {"measurement": "max response", "setting": "[2]", "result": "inactive: 23.1%"}, {"measurement": "Potency", "setting": "[5]", "result": "inconclusive: 21.1 µM [inhibitor, single point]"}, {"measurement": "Potency", "setting": "[7]", "result": "inconclusive: 23.7 µM [inhibitor, single point] and inconclusive: 37.2 µM [inhibitor, single point]"}]}
{"smiles": "CC(=O)[C@]1(O)Cc2c(O)c3c(c(O)c2[C@@H](O[C@H]2C[C@H](N)[C@H](O)[C@H](C)O2)C1)C(=O)c1ccccc1C3=O", "values": [{"measurement": "Potency", "setting": "[8]", "result": "inconclusive: 14.1 µM [inhibitor, full curve]"}, {"measurement": "Potency", "setting": "[7]", "result": "active: 0.9 nM and active: 37.2 nM"}, {"measurement": "Potency", "setting": "[9]", "result": "inactive"}, {"measurement": "Potency", "setting": "[10]", "result": "active: 63 µM and active: 70.6 µM"}]}
{"smiles": "CC(=O)c1ccc2c(c1)N(CCCN1CCC(CCO)CC1)c1ccccc1S2", "values": [{"measurement": "Potency", "setting": "[1]", "result": "inconclusive: 39.8 µM [inhibitor, single point]"}, {"measurement": "Potency", "setting": "[2]", "result": "inconclusive: 31.6 µM [cytotoxic, single point]"}, {"measurement": "Potency", "setting": "[3]", "result": "inconclusive: 6.31 µM [inhibitor, partial curve, poor fit]"}, {"measurement": "Potency", "setting": "[5]", "result": "inconclusive: 21.1 µM [inhibitor, single point]"}, {"measurement": "Potency", "setting": "[7]", "result": "inconclusive: 21.1 µM [inhibitor, single point]"}]}
{"smiles": "NC(=Nc1ccccc1)Nc1ccccc1", "values": [{"measurement": "Potency", "setting": "[1]", "result": "active: 3.55 µM and active: 5.62 µM and active: 355 nM"}, {"measurement": "Potency", "setting": "[3]", "result": "active: 3.16 µM and inconclusive: 3.55 µM [inhibitor, full curve, poor fit]"}, {"measurement": "Potency", "setting": "[5]", "result": "inconclusive: 15.4 µM [inhibitor, partial curve] and inconclusive: 26.6 µM [inhibitor, single point]"}, {"measurement": "Potency", "setting": "[7]", "result": "inconclusive: 15.4 µM [inhibitor, partial curve]"}]}
{"smiles": "CC(CN(C)C)CN1c2ccccc2CCc2ccccc21", "note": "(centres undefined)", "values": [{"measurement": "Potency", "setting": "[1]", "result": "inconclusive: 25.1 µM [inhibitor, full curve]"}, {"measurement": "Potency", "setting": "[2]", "result": "inconclusive: 14.1 µM [cytotoxic, partial curve]"}, {"measurement": "Potency", "setting": "[5]", "result": "inconclusive: 33.5 µM [inhibitor, single point]"}, {"measurement": "Potency", "setting": "[7]", "result": "inconclusive: 26.6 µM [inhibitor, single point]"}]}
{"smiles": "Clc1ccc2c(c1)C(N1CCNCC1)=Nc1ccccc1O2", "values": [{"measurement": "Potency", "setting": "[1]", "result": "inactive"}, {"measurement": "max response", "setting": "[2]", "result": "inactive: -4.18%"}, {"measurement": "Potency", "setting": "[11]", "result": "inconclusive: 3.47 µM [falling, full curve]"}, {"measurement": "Potency", "setting": "[5]", "result": "inconclusive: 21.1 µM [inhibitor, single point] and inactive"}, {"measurement": "Potency", "setting": "[7]", "result": "inconclusive: 29.9 µM [inhibitor, single point] and inactive"}]}
{"smiles": "COc1cc(/C=C/C(=O)CC(=O)/C=C/c2ccc(O)c(OC)c2)ccc1O", "values": [{"measurement": "Potency", "setting": "[2]", "result": "inconclusive: 15.8 µM [cytotoxic, partial curve]"}, {"measurement": "Potency", "setting": "[3]", "result": "inconclusive: 31.6 µM [inhibitor, partial curve, poor fit]"}]}
